# Data: the supplement of paper PMC11417369
# ± gives the standard deviation of the averaged measurements. Some of the results follow.
# System: PfAP2-I AP2 domain 3 (GST-tagged)
# Test: gcPBM binding intensity (ln(normalized median fluorescence intensity)); higher = stronger DNA binding
# In short: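 After 1 h on an Agilent 4 × 180k array of primer-extended double-stranded 36-bp intergenic genomic probes and negative controls, bound GST-tagged P. falciparum DNA-binding domains were detected with Alexa488 anti-GST antibody and scanned at 488 nm. The domains had been expressed in E. coli, and binding took place in 1× PBS with 1% milk, 0.2 mg/ml BSA, 0.5% salmon testes DNA and 0.03% Triton X-100. Binding intensity is the highest Masliner-normalised natural-log median intensity across replicate spots of either probe orientation.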
row,Sequence,gcPBM binding intensity (ln)
1,AATTAGCTCAAAGGTTGTACAAATATATTTTAATGG [XGTACX_site2352],8.04 ± 0.33
2,ATATATATATCTAATTGTACATATTTTATAAATAAG [XGTACX_site4840],8.635 ± 0.078
3,AAAAATTAAATGTACACACACCTTAAACAATGTCAT [CACACA_site6958],7.96 ± 0.25
4,AAATACTGATTTGGTTGTACATGTGCACTATATAAC [XGTACX_site3795],11.3 ± 0.56
5,ATAAATATATTTATATGTACATATAATTTTACATAT [XGTACX_site5440],7.86 ± 0.42
6,TATAATCTAACATAATGTACATGTATATGCACTTTA [XGTACX_site369],10.1 ± 0.68
7,TTTTTTACAATTAACACACTCAAAAATAATATTAAA [CACACA_site5198],7.92 ± 0.34
8,AATTTTTTAAATGTGTGTACATATTATTTAAATAAT [XGTACX_site5967],7.95 ± 0.18
9,TATATTATATATATATGTACATATGGCAAAACATTA [XGTACX_site7958],8.02 ± 0.55
10,AAAAAAAAAAAAAAATGTACCCATAAAATAAGCATT [XGTACX_site8576],8.35 ± 0.54
11,AATCACAACGAACACACACACAAAAAAAAAAAAAAA [CACACA_site6790],7.96 ± 0.54
12,TGATTTTTTCATATTCTACACACGTGAACAAATGTG [CACACA_site8987],7.76 ± 0.77
13,TTAATTATTATATAAGTGCAATAATAAAAAGTTGTA [GTGCAC_site9552],10.7 ± 0.76
14,ATTTAAAACAAAAGTAGTACGTCTAATAAATTCAAC [XGTACX_site4344],7.8 ± 0.26
15,TTATCAATAAAATGCACACACTGTAATATTATTAAA [CACACA_site6055],9.08 ± 0.14
16,ATATATATTTATATTTGTACGAATTAAAATTTTTTA [XGTACX_site5200],7.7 ± 0.52
17,ATAGCTTTTATTTAAAGTACAAAAAGGATGTTGAAA [XGTACX_site3810],7.77 ± 0.62
18,AAAAAAAAAAAACACACACACACACCCATACATACA [CACACA_site707],8.2 ± 0.17
19,AGACAAAATGTTTGAAGTACTTTTTATCAAATTAAA [XGTACX_site8885],7.66 ± 0.2
20,AGGGAATAAGTAAGGTGTACATAATTATGTTACTTT [XGTACX_site6152],7.95 ± 0.52
21,TTTTTTTATTTTATAAAGCAAAAATAAGAATGAAAT [XGTACX_negctrl_site270],7.85 ± 0.4
22,TATATGTATGTATGTACACACAAAAAATGGAATATA [CACACA_site3717],7.93 ± 0.35

row,Sequence,gcPBM binding intensity (ln)
1,TTTTTTTTTTTTAATTGTACATTTTATATAAACTTT [XGTACX_site6806],7.93 ± 0.69
2,AATTTATTTTTTTAATGTACATATGGTATAAATATA [XGTACX_site8012],7.83 ± 0.49
3,TGTTGATTTCTCAAATGTACTTTACTTTTCTTCAGA [XGTACX_site7916],7.54 ± 0.76
4,AATATATATATATGTACACACTCCAATACATATACA [CACACA_site2682],7.92 ± 0.44
5,TTAAGAATATCTTAGAGTACATTTTATCATCTTAAA [XGTACX_site8298],7.3 ± 0.36
6,TCTTTTTAAATTACTATAATACATTCATAAATTATA [GTGCAC_negctrl_site448],7.64 ± 0.34
7,TCTTGTTTTCAAATATGTACATAGAATAGACATTTT [XGTACX_site684],7.75 ± 0.3
8,AAATATATAAAATATACACACAGTAATATATATATA [CACACA_site1385],8.915 ± 0.021
9,AAGTTTTATTTAAATTGTACTAAAATTTTTATATTA [XGTACX_site7065],7.7 ± 0.38
10,TATATATAAATATTCAGTACATAGTATTATTAAGTA [XGTACX_site1980],7.62 ± 0.31
11,ATAAAATGAACAAACACACACACATATATATATATA [CACACA_site2402],9.32 ± 0.2
12,TATTTAAGAATATGAAGTACATATATTATTTAAAAA [XGTACX_site7897],7.64 ± 0.32
13,CATATAAATAAATACACACACACACGCCTTATAATT [CACACA_site7830],8.12 ± 0.67
14,TATATAGGTATCATTACACACATGTATACTTATTTG [CACACA_site7864],7.7 ± 0.49
15,CCTAAAAAAAAGAAATGATATACATATGTATATATA [GTGCAC_negctrl_site100],7.4 ± 0.65
16,TTTTTCTTTCTCTATTGTACACATGGAAACACATAA [XGTACX_site4601],8.4 ± 0.55
17,TACAATTTTTTAAATGCACACAAAAGGAATAAATAA [CACACA_site8075],10.1 ± 0.15
18,AAAAGCAAGTTCCAGGGTACATATATATGAAAAAAC [XGTACX_site2408],8.12 ± 0.73
19,TAATATATGTATTGCACACCTATAACCATTATTTCT [CACACA_site1498],10.2 ± 0.38
20,AAAAATATGTCCATGAAAAGGATAGGCAGGTAATCA [XGTACX_negctrl_site93],8.06 ± 0.86
21,AAATATATTTTACATTGTACATGAATAAACTATAAA [XGTACX_site2080],7.73 ± 0.37
22,AAAAATTAAATAAATTTACACACTAATAATTACATA [CACACA_site8260],7.48 ± 0.49

row,Sequence,gcPBM binding intensity (ln)
1,ACGTTAAAATATTGGGTGCTAACACAATAAAAATAA,8.85 ± 0.21
2,CAATTTTTTAAATGCACACAAAAGGAATAAATAAAT [CACACA_site544],10.1 ± 0.44
3,AAGAAGAAATGCTTTGCATGCAAATTTTATGCCAAC [TGCATGCA_site721],7.98 ± 0.65
4,AACAATTGGAATAACGCATGCATTTATAATATAGAA [TGCATGCA_site298],8.17 ± 0.75
5,ACAAATTTATACTTAAAACACACGTAATCATTTATA [CACACA_site1636],7.66 ± 0.62
6,TGAATATTCCTATGCACACAAATTAAAATACATAAT [CACACA_site4403],8.74 ± 0.2
7,TAAAATAATTTATGCATACACACATATATATATATA [CACACA_site4021],9.49 ± 0.26
8,TACAAAAAAAAAAAATAGATAAAATAATAATCAAAT [TGCATGCA_negctrl_site524],7.46 ± 0.45
9,ATATATTGAACATATTGTACATTTTGTTAATATTTT [XGTACX_site7622],7.44 ± 0.49
10,TCTCAAGTTGTTAAAAAATAAAAACAATAAATCTAA [CACACA_negctrl_site165],7.38 ± 0.35
11,AATTGGGAACTGTAATGTACATATATTGAAAGTATA [XGTACX_site7081],7.84 ± 0.45
12,ACAAAAAAAAATATGTTAACTATATATATATATATA [CACACA_negctrl_site346],9.38 ± 0.29
13,TATTTATTTGTACATATACACACTTAAATATGTTTA [CACACA_site3902],7.83 ± 0.4
14,TTATATTTCTTGAAGGGTACATACCATTATTTTTAA [XGTACX_site1159],7.82 ± 0.48
15,AGAAAACTCGCTTTTCTAAATCTCAAAAAAAAAAAA [XGTACX_negctrl_site94],7.98 ± 0.78
16,ATACATATATTAGGATGTACGTTTATTTTAGTTATT [XGTACX_site7169],7.7 ± 0.34
17,ATATATTTATATATTACACACAATATTGGAGACATA [CACACA_site931],7.94 ± 0.51
18,TAAAAAAATAAAATTACACACATATATAGATATATA [CACACA_site7273],7.25 ± 0.57
19,CACTTTTTTTAAATGTGTACGTATATGAAAATATCA [XGTACX_site4854],7.88 ± 0.4
20,ATATACATATCATGTAGTACAATTTTTTTACTTTTT [XGTACX_site7988],7.63 ± 0.41
21,TAAACAAAAAGGAAGAGTACTTGTAAAATTTGTAAA [XGTACX_site3003],7.86 ± 0.61
22,TGAATACATAAATATAGTACATATATATATATATTA [XGTACX_site8756],7.58 ± 0.15

row,Sequence,gcPBM binding intensity (ln)
1,AGATCATAATATTATACACACATTATGTATATGTAA [CACACA_site1490],7.62 ± 0.49
2,TATAATATTATTTGAAGTACAAACATAAAAGAATTA [XGTACX_site3161],7.66 ± 0.47
3,GAACCATTTTTTGGTATACACACGTAATTATAGAAT [CACACA_site1851],7.79 ± 0.64
4,TACAAAAAATTATGGAGTACATATATAATATACAAT [XGTACX_site1004],7.96 ± 0.2
5,GTTTCTATTCACATTTTACACACGTCCATCGCATTT [CACACA_site9142],8.45 ± 0.76
6,TTTTGTTGTATGATAATTCTTTTATCAATATGTCTT [TGCATGCA_negctrl_site567],7.45 ± 0.67
7,ACCAAATTATCAAATGGTACACATAAAATAATAAAA [XGTACX_site865],7.69 ± 0.59
8,TAATTAACCTATGCATTCATATAGATACATAAATAT [CACACA_negctrl_site885],8.1 ± 0.11
9,TAATTTTTTTTTTTTTTTCATTCTTTTCCTTTGATT [CACACA_negctrl_site1365],7.18 ± 0.61
10,TTTATATAATTTTTTTGTACATATATATGAATACAT [XGTACX_site2316],7.73 ± 0.54
11,TATATTTTCCTGCAAACACACATATAAATGGGTAGA [CACACA_site4451],8.29 ± 0.76
12,TTTTTTTTTTTTGGTAGTACATAATATTAATATAAT [XGTACX_site4422],8.11 ± 0.62
13,ATATACTCATTTAATACACACAAAGAGAAAATTAAT [CACACA_site1923],7.92 ± 0.4
14,ATATATATATATATGGTGCATGAAAATTTACTTTGA,10.11 ± 0.085
15,GATATTTGTTCATATACACACTTTTGATAAAATATG [CACACA_site4807],7.82 ± 0.59
16,TACTTTTATAAAAATTTTATCAAATTCTATATATGT [TGCATGCA_negctrl_site308],7.79 ± 0.38
17,TTTTAAATTTAGTGTAGTACACTTTTTTCAAATATA [XGTACX_site4659],7.99 ± 0.37
18,ATATTATCATTTTTTTTAATGGAAAAAAAAAAAAAA [CACACA_negctrl_site1298],8.03 ± 0.57
19,ATATAATTCAAATACAGTACATATACAATATATACA [XGTACX_site1191],7.69 ± 0.34
20,ATATATATAAAAGAAACAACATTTATTCAAAAGGTA [CACACA_negctrl_site749],7.91 ± 0.63
21,TTATTCTTTTAATATACACACTTTGTCTTTTCGCGC [CACACA_site5525],7.63 ± 0.85
22,TACATATTTATATACACACACACACGGATATTTATA [CACACA_site7239],8.02 ± 0.19
